Read-outs that look alike come from different tables or passages of the source.
System: Semliki Forest Virus
Conditions: for antiviral activity (in words): Tables 16 and 17
Experimental: Antiviral activity was also tested against Semliki Forest Virus an Encephalitis type virus. In this example compounds 7 and 36 were tested for therapeutic efficacy and additionally compound 7 was tested for prophylactic efficacy. Results of this test are shown in Table 16 for the therapeutic mode and in Table 17 for the prophylactic mode.
^a Halfdaily doses were administered twice a day for 7 days starting
hours previrus inoculation
inoculation. Halfdaily doses were administered twice a day because of […]

Compound | antiviral activity (in words) | Mean Survival Time (therapeutic, 50 mg/kg/day, schedule not given) | Mean Survival Time (therapeutic, 100 mg/kg/day, schedule not given) | Mean Survival Time (therapeutic, 200 mg/kg/day, schedule not given) | Mean Survival Time (prophylactic, 200 mg/kg/day, half-daily doses 24 and 16 h pre-virus) | Mean Survival Time (therapeutic, 50 mg/kg/day, once a day at -2 h and days 2, 4, 6) | Mean Survival Time (therapeutic, 100 mg/kg/day, once a day at -2 h and days 2, 4, 6) | Mean Survival Time (therapeutic, 200 mg/kg/day, -2 h and days 2, 4, 6, half-daily doses twice a day)
Nc1nc2c(sc(=O)n2[C@H]2C[C@H](O)[C@@H](CO)O2)c(=O)[nH]1 [Compound 36, 5-Amino-3-(2-deoxy-β-D-erythropentofuranosyl)thiazolo[4,5-d]pyrimidine-2,7(3H,6H)-dione] | exhibited therapeutic antiviral activity | 6.1 ± 1.1 days | 6.8 ± 0.8 days | 7.0 ± 0.0 days | – | – | – | –
Nc1nc2c(sc(=O)n2[C@@H]2O[C@H](CO)[C@@H](O)[C@H]2O)c(=O)[nH]1 [Compound 7, 5-Amino-3-β-D-ribofuranosylthiazolo[4,5-d]pyrimidine-2,7(6H)-dione] | exhibited antiviral activity in both a therapeutic mode and a prophylactic mode | – | – | – | 11.8 ± 2.9 days | 6.6 ± 0.8 days | 7.3 ± 0.5 days | 4.2 ± 0.8 days
